The values below come from the BET-seq Pho4 binding data (Le et al. 2018).

The list shows a part of the results. These are noisy estimates, calculated here from bound and input reads.

This experiment deals with T1, Pho4 (S. cerevisiae) (UniProt P07270).
T1 sequence: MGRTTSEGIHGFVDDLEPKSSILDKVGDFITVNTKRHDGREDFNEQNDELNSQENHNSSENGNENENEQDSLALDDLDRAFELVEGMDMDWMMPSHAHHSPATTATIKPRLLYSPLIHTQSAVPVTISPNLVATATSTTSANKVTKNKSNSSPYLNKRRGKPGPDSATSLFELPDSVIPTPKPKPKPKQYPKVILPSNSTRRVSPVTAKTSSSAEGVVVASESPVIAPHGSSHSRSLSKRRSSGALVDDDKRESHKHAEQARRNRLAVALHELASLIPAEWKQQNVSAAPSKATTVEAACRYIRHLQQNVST
Description: relative binding free energy (BET-seq); higher = weaker binding. The conditions noted are these: reference: library average.
As for ATGTTCACGTGCTCGG, the “relative binding free energy” value is 0.12 kcal/mol. To GGATTCACGTGTATTA belongs 0.34 kcal/mol; to ACATGCACGTGGGTGC, -0.18 kcal/mol; to GGTTGCACGTGACAGT, 0.14 kcal/mol. To TGGGGCACGTGCAAGA belongs -0.05 kcal/mol; to CGTTTCACGTGGGACG, 0.1 kcal/mol; to GTTGTCACGTGGTTTA, 0.13 kcal/mol. Consider TTTATCACGTGTATAT, for which the “relative binding free energy” value is 0.2 kcal/mol. The figure for CCGTGCACGTGGTGAG is -0.01 kcal/mol. To GCGGGCACGTGTAGCG belongs -0.09 kcal/mol. CATTTCACGTGTGGGC: the “relative binding free energy” value came out at 0.57 kcal/mol.

As to GCGGGCACGTGGATGA, the “relative binding free energy” value was -0.08 kcal/mol. To CTCTTCACGTGGGGGC belongs 0.27 kcal/mol.

In the case of TTTTGCACGTGGATGG, the “relative binding free energy” value was -0.01 kcal/mol. Consider AGCAGCACGTGAGGTT, for which the “relative binding free energy” value was 0.16 kcal/mol. The figure for TTTAACACGTGGTGTA is -0.12 kcal/mol; for GGATTCACGTGGGAAT it is 0.25 kcal/mol. To GTAATCACGTGAAGGG belongs 0.33 kcal/mol; to CATGTCACGTGTGGGT, 0.06 kcal/mol. To TGGCACACGTGACGGT belongs 0.1 kcal/mol; to GATGTCACGTGGGCAA, 0.1 kcal/mol; to TCGTTCACGTGACGGT, 0.25 kcal/mol.

With CAATGCACGTGGGAAT, the “relative binding free energy” value came to 0.12 kcal/mol. To TTATTCACGTGTCTTG belongs 0.28 kcal/mol. To TGACTCACGTGTAAGG belongs 0.34 kcal/mol. To AAAGGCACGTGGGATA belongs -0.09 kcal/mol. GGGCTCACGTGGGGGC: the “relative binding free energy” value came out at 0.07 kcal/mol.

Regarding ACGTACACGTGTGATG, the “relative binding free energy” value is 0.24 kcal/mol. As for CAGTTCACGTGAGGGA, the “relative binding free energy” value was determined as 0.37 kcal/mol. For the sequence GGAATCACGTGGGTCG, the “relative binding free energy” value came out at 0.03 kcal/mol. Turning to TTTGCCACGTGTTTTC, the “relative binding free energy” value turned out to be 0.04 kcal/mol.

In the case of AATATCACGTGAGCGT, the “relative binding free energy” value stood at 0.26 kcal/mol. As to GTATGCACGTGAAAAG, the “relative binding free energy” value is 0.21 kcal/mol. The figure for TTTAACACGTGGTTGC is -0.02 kcal/mol. As for TCGTACACGTGTTGGG, the “relative binding free energy” value was -0.01 kcal/mol. Turning to TCTTTCACGTGAGAGG, the “relative binding free energy” value was found to be 0.45 kcal/mol. For TATACCACGTGAGGTT, the “relative binding free energy” value is 0.23 kcal/mol. The figure for ATTATCACGTGGTGGC is 0.03 kcal/mol. To AGGGGCACGTGTTGTT belongs -0.04 kcal/mol; to ATACACACGTGGGTTT, -0.09 kcal/mol. The figure for TGTGTCACGTGTAGCC is 0.15 kcal/mol; for CTATGCACGTGGTGAT it is -0.17 kcal/mol; for TAAGACACGTGGTATG it is -0.16 kcal/mol. In the case of AGAAACACGTGGTGGC, the “relative binding free energy” value is -0.01 kcal/mol.

As for GCTGTCACGTGAGAGG, the “relative binding free energy” value is 0.23 kcal/mol.

Turning to TGGGACACGTGTACTG, the “relative binding free energy” value was found to be 0.18 kcal/mol. Consider CTGGTCACGTGCAGGT, for which the “relative binding free energy” value was determined as 0.11 kcal/mol. To TAAGGCACGTGAAGTA belongs 0.16 kcal/mol. For the sequence GTGTTCACGTGGAAAT, the “relative binding free energy” value turned out to be 0.23 kcal/mol. The figure for GTTTTCACGTGACGTA is 0.2 kcal/mol; for AGTTACACGTGCGGTT it is 0.11 kcal/mol; for GCATGCACGTGGTTTA it is -0.12 kcal/mol.

Regarding TGACTCACGTGGTTTA, the “relative binding free energy” value was 0.32 kcal/mol.

With AAGTGCACGTGTTAAG, the “relative binding free energy” value was 0.09 kcal/mol. For AATGGCACGTGGGGCT, the “relative binding free energy” value was -0.24 kcal/mol. For the sequence TGTACCACGTGTATTT, the “relative binding free energy” value came to 0.06 kcal/mol. To GGTTTCACGTGTACGG belongs 0.33 kcal/mol; to GTTATCACGTGGTGCA, 0 kcal/mol.

Consider TGGGGCACGTGCATGC, for which the “relative binding free energy” value is -0.2 kcal/mol.

Turning to CGTGGCACGTGGCTTT, the “relative binding free energy” value was -0.24 kcal/mol. As to TTTTTCACGTGTCGTC, the “relative binding free energy” value amounted to 0.29 kcal/mol. Take AGCGGCACGTGTGGCG: the “relative binding free energy” value was -0.23 kcal/mol. Consider ATTTGCACGTGGATAT, for which the “relative binding free energy” value is 0.09 kcal/mol. As for CGACGCACGTGGTGTG, the “relative binding free energy” value was -0.29 kcal/mol. The figure for AGATGCACGTGTTTAT is -0.04 kcal/mol. For the sequence TTGATCACGTGCTGTT, the “relative binding free energy” value is 0.04 kcal/mol.

On to AATTACACGTGAGGTG, for which the “relative binding free energy” value stood at 0.34 kcal/mol.

Take AGAGGCACGTGTAGGC: the “relative binding free energy” value is -0.04 kcal/mol.

With TGGCGCACGTGTAGGA, the “relative binding free energy” value is -0.06 kcal/mol.

For the sequence CGGGGCACGTGGATGA, the “relative binding free energy” value is -0.14 kcal/mol. As to GTTAGCACGTGTTGCT, the “relative binding free energy” value stood at 0.12 kcal/mol. To TATGGCACGTGATAAT belongs -0.03 kcal/mol; to GAATGCACGTGGTTAA, 0.06 kcal/mol. As to ATTCTCACGTGAATGT, the “relative binding free energy” value amounted to 0.43 kcal/mol.

As for TTATACACGTGTTTGG, the “relative binding free energy” value was -0.04 kcal/mol.

Consider TGGCACACGTGTTGAA, for which the “relative binding free energy” value came to 0.2 kcal/mol. The figure for TAGGGCACGTGAGCGT is -0.1 kcal/mol; for TATGACACGTGGGAAG it is -0.03 kcal/mol; for AAGAGCACGTGGAGGG it is -0.22 kcal/mol. To TCTATCACGTGATGTT belongs 0.01 kcal/mol; to TTGTACACGTGAGGAG, 0.43 kcal/mol; to CTTGCCACGTGGGTTG, -0.25 kcal/mol. The figure for TAAGGCACGTGCGCTG is -0.21 kcal/mol; for ACGCGCACGTGGGGGC it is -0.27 kcal/mol; for GTGTTCACGTGCGGGA it is 0.2 kcal/mol. Take GATAACACGTGTTGGC: the “relative binding free energy” value turned out to be 0.1 kcal/mol. To ACTTGCACGTGTTGAT belongs 0.09 kcal/mol; to GGGTTCACGTGGCAAT, 0.39 kcal/mol; to TTTAACACGTGCTTTA, -0.1 kcal/mol. To AAAGGCACGTGGGCGC belongs -0.2 kcal/mol; to AATTACACGTGGGGTC, 0.08 kcal/mol; to TGGATCACGTGTGAAT, 0.28 kcal/mol. To TGGATCACGTGGGAGA belongs -0.09 kcal/mol; to TCGAGCACGTGGTTAT, -0.13 kcal/mol; to GGGCTCACGTGTATTT, 0.26 kcal/mol. With CGGTTCACGTGCGGGA, the “relative binding free energy” value worked out at 0.07 kcal/mol.

GTAATCACGTGAGATT: the “relative binding free energy” value stood at 0.33 kcal/mol.

On to GGTCGCACGTGAGTAT, for which the “relative binding free energy” value came out at 0.22 kcal/mol. To GTTGTCACGTGTCCGT belongs 0.03 kcal/mol. In the case of TATGTCACGTGGACAT, the “relative binding free energy” value came to 0.2 kcal/mol. For the sequence GTGTACACGTGGTCAG, the “relative binding free energy” value is -0.1 kcal/mol.

As for TTGGTCACGTGCAGAG, the “relative binding free energy” value was 0.09 kcal/mol. On to GTGAGCACGTGGAAGA, for which the “relative binding free energy” value was -0.05 kcal/mol. As to CGAGTCACGTGAATTT, the “relative binding free energy” value was 0.5 kcal/mol.

For TTCGACACGTGAGTGT, the “relative binding free energy” value came out at 0.13 kcal/mol. The figure for AATGGCACGTGTGGAA is -0.06 kcal/mol. To TATACCACGTGTAGGA belongs 0.19 kcal/mol. As for GGTTACACGTGTCGGT, the “relative binding free energy” value worked out at 0.17 kcal/mol. The figure for TCTAGCACGTGCGGGG is -0.11 kcal/mol; for TTTCGCACGTGTATTT it is -0.09 kcal/mol. As to ATTGTCACGTGTGAGC, the “relative binding free energy” value stood at 0.12 kcal/mol.

For TGCGTCACGTGAATGG, the “relative binding free energy” value stood at 0.3 kcal/mol. With GAGTTCACGTGGTGTG, the “relative binding free energy” value is 0.25 kcal/mol. The figure for GCTGACACGTGATGGG is 0.19 kcal/mol; for TTGGGCACGTGTGATT it is 0.08 kcal/mol. Regarding GGTTTCACGTGCGATT, the “relative binding free energy” value is 0.24 kcal/mol. The figure for AATGGCACGTGCTGTA is -0.21 kcal/mol; for AGTTGCACGTGGCAGA it is -0.06 kcal/mol; for TGTATCACGTGGCAGG it is 0.07 kcal/mol. GTTGTCACGTGGTCAG: the “relative binding free energy” value came to 0.08 kcal/mol.

Consider AGGTCCACGTGGGTCG, for which the “relative binding free energy” value was -0.16 kcal/mol. The figure for GGTGTCACGTGATAAG is 0.21 kcal/mol; for TTGGTCACGTGCTCAT it is 0 kcal/mol. As to AATGTCACGTGCTGTA, the “relative binding free energy” value was -0.07 kcal/mol. The figure for GGCGGCACGTGTATAG is 0.06 kcal/mol; for CTGGCCACGTGTATGG it is -0.02 kcal/mol.

Consider TCGGTCACGTGTGTTG, for which the “relative binding free energy” value was 0.14 kcal/mol. For CGTTACACGTGGGATT, the “relative binding free energy” value was determined as 0.09 kcal/mol. AAAGGCACGTGTGGTT: the “relative binding free energy” value was -0.01 kcal/mol. The figure for TTTAGCACGTGGAGTG is -0.03 kcal/mol; for GCTTGCACGTGCTGGT it is 0.03 kcal/mol. The figure for GGTTGCACGTGCTAAT is 0.01 kcal/mol. For the sequence TAAATCACGTGGGTAT, the “relative binding free energy” value was 0.05 kcal/mol.

Turning to CTAGTCACGTGCTGGG, the “relative binding free energy” value came out at 0.16 kcal/mol. In the case of TTTTTCACGTGCTCGT, the “relative binding free energy” value was found to be 0.28 kcal/mol. To TTTGACACGTGTAGTC belongs 0.22 kcal/mol; to ATCTGCACGTGTGGGG, -0.05 kcal/mol; to CGGTGCACGTGTGAGT, -0.09 kcal/mol. For the sequence GCATGCACGTGTAGTA, the “relative binding free energy” value was determined as 0.12 kcal/mol.

On to CGCGACACGTGGGTGT, for which the “relative binding free energy” value was -0.14 kcal/mol. The figure for TGCGGCACGTGCGTTA is -0.2 kcal/mol; for ATGTACACGTGCGTGA it is 0.02 kcal/mol; for GTTAACACGTGTGCTT it is 0 kcal/mol. In the case of ATGGACACGTGGTTCT, the “relative binding free energy” value is -0.16 kcal/mol. The figure for AGTAGCACGTGTGGTT is -0.03 kcal/mol; for ATGTACACGTGTGGTC it is 0.23 kcal/mol.
